# Assay results reported in patent publication US5994336A, “Method of inhibiting proliferation of cells by administering an aminosterol compound” (priority 1995, dated 1999).
# Experiment: Hematological profile of L1210-inoculated mice
structure (smiles),measurement,value
CC(C)[C@@H](CC[C@@H](C)[C@H]1CC[C@H]2[C@@H]3[C@H](O)C[C@H]4C[C@@H](NCCCNCCCCNCCCN)CC[C@]4(C)[C@H]3CC[C@]12C)OS(=O)(=O)O [Compound 1436],hematological profile,"near normal hematocrit, with evidence of a robust granulocyte count"
